From PubChem BioAssay AID1030 (National Center for Advancing Translational Sciences (NCATS), 2008)
Screen size: about 220,000 compounds; about 16,000 (7.3%) were called active. The inconclusive results got no clear call from the source; some entries with a clear call stand among them for comparison. Calls follow the shape of the dose curve; as a rule, active = well fitted inhibition curve with a large enough effect (not every such curve was filed as active); inconclusive = small, poorly fitted or top-dose-only effect, or another doubt; inactive = no such curve, though single readings can be large or run the other way. A potency beside an inconclusive call is a rough fit, not a confirmed value.

biological target: Aldehyde dehydrogenase 1A1 (Homo sapiens) (UniProt P00352); experiment: qHTS Assay for Inhibitors of Aldehyde Dehydrogenase 1 (ALDH1A1); conditions: Purified ALDH1A1, NADH fluorescence, propionaldehyde substrate; series mostly up to 75.3 µM
Potency is read from the fitted curve at half-maximal effect; tags tell the direction and shape of the fitted curve.

Chain of UniProt P00352 (P00352 whole entry, looked up): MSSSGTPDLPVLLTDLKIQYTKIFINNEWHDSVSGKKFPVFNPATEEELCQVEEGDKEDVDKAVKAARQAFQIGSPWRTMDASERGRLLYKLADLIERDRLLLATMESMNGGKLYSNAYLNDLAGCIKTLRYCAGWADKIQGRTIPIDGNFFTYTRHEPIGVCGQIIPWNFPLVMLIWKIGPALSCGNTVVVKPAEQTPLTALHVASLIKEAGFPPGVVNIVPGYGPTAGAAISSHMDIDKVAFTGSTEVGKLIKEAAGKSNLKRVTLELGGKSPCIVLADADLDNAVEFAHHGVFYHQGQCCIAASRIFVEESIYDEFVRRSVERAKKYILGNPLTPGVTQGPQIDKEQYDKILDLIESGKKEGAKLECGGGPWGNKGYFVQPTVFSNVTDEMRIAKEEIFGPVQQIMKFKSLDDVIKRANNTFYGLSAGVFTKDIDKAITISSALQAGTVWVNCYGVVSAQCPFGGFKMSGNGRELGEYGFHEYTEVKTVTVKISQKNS

Potency, inconclusive:
COc1ccc(/C=C/C(=O)Nc2cc(S(=O)(=O)N3CCCCC3)ccc2N2CCCCC2)cc1OC 17.8 µM [inhibitor, partial curve]
C=CCN(CC=C)c1nc2ccccc2nc1C(C#N)C(=O)OC(C)C (configuration not stated) 39.8 µM [inhibitor, single point]
CCOC(=O)c1c(NC(=O)c2nc3n(n2)C(C(F)F)CC(C)N3)sc2c1CCCC2 (configuration not stated) 35.5 µM [inhibitor, single point]
COc1cc(/C=C2\NC(=S)N(C)C2=O)ccc1O 39.8 µM [inhibitor, single point]
Cc1cc(=O)c2ccc3ccccc3c2[nH]1 35.5 µM [inhibitor, single point]
COc1ccc(-c2nc(NC(=O)c3cc(C(C)(C)C)nn3C)sc2C)cc1 44.7 µM [inhibitor, single point]
Cc1ccc(NC(=O)c2ccc(NCCCN3CCOCC3)c([N+](=O)[O-])c2)cc1Cl 22.4 µM [inhibitor, single point]
O=C(NC(=S)N1CCc2ccccc21)c1ccco1 39.8 µM [inhibitor, single point]
COc1ccc(OC)c(NC2c3ncccc3C(=O)N2Cc2ccco2)c1 (configuration not stated) 17.8 µM [inhibitor, partial curve]
COCCNC(=O)c1snc2ccc(Cl)cc12 39.8 µM [inhibitor, single point]
Cn1c(/N=C/c2c[nH]c3ccccc23)nc2ccccc21 39.8 µM [inhibitor, single point]
COc1cc(S(=O)(=O)NC2CCCCC2C)ccc1Cl (configuration not stated) 39.8 µM [inhibitor, single point]
CCOCCOc1nc2c(c(=O)n(C)c(=O)n2C)n1CCc1ccccc1 22.4 µM [inhibitor, single point]
COC(=O)N1CCC2(CCCN(c3ccncc3)C2)CC1 39.8 µM [inhibitor, single point]
O=C(Nc1ccccc1)N1CCN(c2nc3ccccc3s2)CC1 31.6 µM [inhibitor, single point]
O=C(c1ccccc1)N1CCSc2sccc2C1=O 28.2 µM [inhibitor, single point]
O=C(COc1cccc(C(F)(F)F)c1)Nc1ccc(S(=O)(=O)N2CCCC2)cc1 28.2 µM [inhibitor, single point]
CCC(=O)Oc1ccc(C(=O)Nc2ccc3c(c2)C(=O)N(C2CCCCC2)C3=O)cc1 15.8 µM [inhibitor, partial curve]
Cc1cc2c(cc(C(=O)N3CCC(C(=O)N4CCCC4)CC3)n2Cc2c(F)cccc2Cl)o1 35.5 µM [inhibitor, single point]
C/C(CC(=O)Nc1ccc(N(C)C)cc1)=N\NC(=O)c1cnccn1 39.8 µM [inhibitor, single point]
CC(NC(=O)CSc1ccccc1C(=O)O)C1CC2CCC1C2 (configuration not stated) 14.1 µM [inhibitor, single point]
Cc1ccc(NCC(=O)N/N=C/c2cc(O)ccc2[N+](=O)[O-])cc1 22.4 µM [inhibitor, partial curve]
N#CCSc1nc2ccc(N3CCCCC3)cc2c(=O)n1Cc1ccccc1 28.2 µM [inhibitor, partial curve]
CSCCC(NC(C)=O)C(=O)OCC(=O)N(c1ccccc1)c1ccccc1 (configuration not stated) 10 µM [inhibitor, partial curve]
CCCCc1ccc(NC(=S)NCc2cccc(OC)c2)cc1 44.7 µM [inhibitor, single point]
Cc1nnc(NC(=O)CSc2ccc(-c3ccccn3)nn2)s1 39.8 µM [inhibitor, single point]
N#Cc1ccc(-c2nc3ccccc3nc2-c2ccccc2)cc1C#N 39.8 µM [inhibitor, single point]
COc1ccc(NC(=O)CSc2nnnn2C)cc1 37.7 µM [inhibitor, single point]
O=C(c1cn(-c2ccccc2)nc1-c1cccs1)N1CCN(c2ccc(F)cc2)CC1 39.8 µM [inhibitor, single point]
CCOc1cc(/C=C(/C#N)C(=O)Nc2ccc(O)cc2)cc(Br)c1O 25.1 µM [inhibitor, partial curve]
COc1ccc(S(=O)(=O)N[C@@H](C)C(=O)OCC(=O)Nc2cc3oc4ccccc4c3cc2OC)cc1 39.8 µM [inhibitor, single point]
CCOc1ccc(OCC)c(NC(=O)C2CCN(S(=O)(=O)c3cccc4nonc34)CC2)c1 39.8 µM [inhibitor, single point]
CSc1ccc(/C=C/C(=O)c2ccc(NC(=O)C(C)C)cc2)cc1 35.5 µM [inhibitor, single point]
CCOC(=O)C(C)c1nc2ccccc2[nH]c1=O (configuration not stated) 35.5 µM [inhibitor, single point]
O=C(NCCc1ccccc1)c1cnc2ccccn2c1=O 28.2 µM [inhibitor, partial curve]
Cc1ccc(-c2cn3cccnc3n2)cc1 2.24 µM [inhibitor, partial curve]
CC(=O)c1cc2c(cc1NC(=O)CCNC(=O)c1ccccc1Cl)OCO2 39.8 µM [inhibitor, single point]
Cc1cccc(OCC(=O)N/N=C/c2ccc(N(C)C)cc2)c1 23.8 µM [inhibitor, single point]
CCP(=O)(CC)C(C)(C)CP(=O)(c1ccccc1)c1ccccc1 25.1 µM [inhibitor, partial curve]
COc1ccc(/C=C2\CC/C(=C\c3ccc(OC)cc3OC)C2=O)c(OC)c1 39.8 µM [inhibitor, single point]

Potency, inactive:
Clc1ccc(-c2ncc3ccccn23)c(Cl)c1
CN[C@H]1[C@@H](O)[C@@H](NC)[C@@H]2O[C@@]3(O)C(=O)C[C@@H](C)O[C@H]3O[C@H]2[C@H]1O
O=C(Nn1c(-c2ccncc2)nc2ccccc2c1=O)c1ccc([N+](=O)[O-])cc1Cl
COc1ccc(NC(=O)C2CCCC2)cn1
CCOC(=O)C1CCN(C(=O)c2c(C)oc3c2C(=O)c2ccccc2C3=O)CC1
O=C(C(F)C(F)(F)F)N1CCN(c2ccccc2)CC1 (configuration not stated)
COc1ccc(CCNC(=O)Cn2c(=O)[nH]c3ccsc3c2=O)cc1OC
CCn1c(=O)c(C(=O)NCCN2CCCCC2)c(O)c2ccccc21
CC(=O)NC1=C(C#N)C(c2ccccc2)c2c(ccc3ccccc23)O1 (configuration not stated)
O=C(N1CCCCC1)N1CCN(S(=O)(=O)c2ccc(Cl)cc2)CC1
CC1C(=O)CCC2[C@]1(C)CCC1[C@]2(C)CC[C@@]2(C)C3CC(C)(C)CC[C@]3(C)CC[C@@]12C (some centres not stated)
COc1cccc(OC)c1C(=O)Nc1ccc(N2CCCCC2)cc1
CNc1cc(C)nc(N2CCOCC2)n1
O=C(CCc1nnc(C2CCCCC2)o1)NCCCOc1cccnc1
COc1ccc(NC(=O)COC(=O)Cc2c(F)cccc2Cl)cc1OC
COC(=O)C1=C(C)Nc2nnnn2C1c1cc(OC)ccc1OC (configuration not stated)
C[n+]1cccc(C(=O)NCC2CCCO2)c1 (configuration not stated)
CCC1=NN(S(=O)(=O)c2ccc(C)cc2)C(O)(C(F)(F)F)C1 (configuration not stated)
Cc1ccc(Nc2ncnc3c2cnn3C)cc1
O=C(CSc1ncn[nH]1)OCN1C(=O)c2ccccc2C1=O
O=C(NCCC1=CCCCC1)c1ccc(=O)oc1
Cn1c(SCc2ccccn2)nnc1-c1ccccc1
CC(C)(C)C(=O)Nc1cc(NC(=O)C(C)(C)C)cc(C(=O)Nc2cc(C(=O)O)cc(C(=O)O)c2)c1
Cc1ccc(C(=O)NCCNS(C)(=O)=O)cc1

Potency, active:
Cc1ccc(N2C(=O)CC(NCC3CCCO3)C2=O)cc1 (configuration not stated) 20 µM
O=C(NC(c1ccccc1)c1ccccn1)c1cccc([N+](=O)[O-])c1 (configuration not stated) 14.1 µM
Cc1oc(-c2ccccc2Cl)nc1CSCC(=O)NC1CCCC1 14.1 µM
CCCOc1ccc(N2C(=O)CC(SCCN)C2=O)cc1 (configuration not stated) 0.224 µM
O=C(CN1C(=O)C2CC=CCC2C1=O)NCc1cccs1 (configuration not stated) 28.2 µM
CC(C)NS(=O)(=O)c1ccc(CCC(=O)Nc2ccc3c(c2)OCO3)cc1 0.398 µM
COc1ccccc1N1CCN(C/C(O)=C(\C#N)c2nc(-c3ccccc3)cs2)CC1 11.2 µM
COc1cccc(NC(=S)N2CCN(c3ccc([N+](=O)[O-])cc3)CC2)c1 7.94 µM
c1ccc(-c2ccc(-c3ccccn3)nn2)nc1 20 µM
CCn1c(=O)c2cc(C(=O)N(C)c3ccccc3F)sc2c2ccccc21 25.1 µM
N#C/C(=N\Nc1ccc(S(=O)(=O)N2CCCCCC2)cc1)C(N)=S 8.91 µM
CC(=O)c1cccc(CN2CCCC(C(=O)c3ccc4c(c3)OCO4)C2)c1 (configuration not stated) 28.2 µM
c1ccc(-c2csc(Nc3ccc4c(c3)OCCO4)n2)cc1 23.8 µM
